Measurements published in article PMC4336329 (PLoS ONE, 2015).
Out of some 310,000 compounds screened, about 2,200 (0.71%) showed an effect of 50% or more. Effects have a minus sign here. This is one part of the list.

target: human ether-à-go-go-related gene (hERG) potassium channel (human, UniProt Q12809); test: primary screen, population patch clamp on CHO cells stably expressing hERG
Sequence (Q12809 whole entry, looked up): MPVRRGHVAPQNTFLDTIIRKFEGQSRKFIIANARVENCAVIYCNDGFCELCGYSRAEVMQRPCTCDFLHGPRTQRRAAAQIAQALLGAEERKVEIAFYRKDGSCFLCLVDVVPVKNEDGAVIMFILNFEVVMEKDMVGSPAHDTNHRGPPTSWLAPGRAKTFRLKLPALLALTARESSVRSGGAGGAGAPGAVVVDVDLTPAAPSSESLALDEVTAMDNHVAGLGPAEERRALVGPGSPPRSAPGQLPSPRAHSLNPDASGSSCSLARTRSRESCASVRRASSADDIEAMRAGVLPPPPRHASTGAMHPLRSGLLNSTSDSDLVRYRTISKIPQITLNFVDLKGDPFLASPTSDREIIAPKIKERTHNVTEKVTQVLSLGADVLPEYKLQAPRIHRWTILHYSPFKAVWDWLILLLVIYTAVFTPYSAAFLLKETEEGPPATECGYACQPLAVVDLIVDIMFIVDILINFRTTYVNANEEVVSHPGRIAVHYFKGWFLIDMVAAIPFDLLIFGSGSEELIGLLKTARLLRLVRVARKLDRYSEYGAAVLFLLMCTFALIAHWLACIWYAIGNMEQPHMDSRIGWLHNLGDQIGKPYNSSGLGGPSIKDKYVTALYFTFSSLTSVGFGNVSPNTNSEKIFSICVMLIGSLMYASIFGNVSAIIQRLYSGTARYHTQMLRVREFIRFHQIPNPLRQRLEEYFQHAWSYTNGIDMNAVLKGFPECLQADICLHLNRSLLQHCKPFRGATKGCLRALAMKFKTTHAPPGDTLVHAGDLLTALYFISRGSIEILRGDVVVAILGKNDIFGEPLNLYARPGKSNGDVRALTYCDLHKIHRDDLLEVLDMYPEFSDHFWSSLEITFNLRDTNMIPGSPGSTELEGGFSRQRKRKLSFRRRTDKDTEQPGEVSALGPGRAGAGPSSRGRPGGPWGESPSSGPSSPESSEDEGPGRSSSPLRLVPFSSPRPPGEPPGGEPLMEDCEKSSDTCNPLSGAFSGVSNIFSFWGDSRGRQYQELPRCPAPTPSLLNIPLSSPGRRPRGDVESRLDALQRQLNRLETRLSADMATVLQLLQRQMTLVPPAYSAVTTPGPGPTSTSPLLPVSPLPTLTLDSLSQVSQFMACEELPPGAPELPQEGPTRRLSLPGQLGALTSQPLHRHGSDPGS

In order of rising “hERG current change (%, negative = inhibition) at 1uM” value:
1. CCOC(=O)c1c(N2CCN(c3ccccc3)CC2)cc(C)nc1C.O=C([O-])C(=O)[O-]  -69%
2. CN(C)CCN(Cc1ccc(Cl)cc1)c1ccccn1.Cl  -57.1%
3. CCOc1ccc(NC(=O)CN(C)S(=O)(=O)c2ccc3c(c2)CCC(=O)N3)cc1  -29.5%
4. CC(C)n1c(N2CCN(CC(=O)Nc3ccc4c(c3)OCCO4)CC2)nc2ccccc21  -21.4%
5. CCOC(=O)C1=C(OCc2ccc(Cl)cc2)C2C=C(C)C=CC2N=C1 (centres unmarked)  -18.1%
6. O=C(CN1CCCN(S(=O)(=O)c2ccc(Br)s2)CC1)Nc1ccc(Cl)cc1  -10.9%
7. COc1cc(NC(=O)Cc2ccccc2OC)cc(OC)c1  -7.74%
8. Cc1ccc(S(=O)(=O)NC(CC(C)C)C(=O)NCc2ccco2)cc1 (centres unmarked)  -5.98%
9. COCCNC(=O)c1c[nH]c2ccc(OC)cc2c1=O  -5.88%
10. NC(=O)COC(=O)c1c2c(nc3ccccc13)CCCC2  -5.13%
11. CC1C(=O)N(Cc2ccc([N+](=O)[O-])cc2)c2ccccc2N1C(=O)C1CC1 (centres unmarked)  -3.95%
12. CSc1ccc(COC(=O)CCS(=O)(=O)c2ccc(C)cc2)cc1  -3.39%
13. CCC(C)n1c(O)c(/C=N/N2CCOCC2)c(=O)[nH]c1=S (centres unmarked)  -0.857%
14. O=C(OCCNc1nc(-c2ccccc2)nc2ccccc12)c1cccnc1  -0.797%
15. CCCCNC(=O)c1cc(S(=O)(=O)N2CCCCC2)oc1C  -0.539%
16. Fc1ccccc1N1CCN(C(c2ccncc2)c2nnnn2C2CCCC2)CC1 (centres unmarked)  -0.501%
17. COc1ccccc1S(=O)(=O)Cc1ccc(C(=O)N2CCN(c3ccc(C)cc3)C(C)C2)o1 (centres unmarked)  0.218%
18. Cn1c(Cc2ccc3c(c2)OCO3)nnc1SCC(=O)N1CCc2ccccc2C1  0.352%
19. COc1cc(C(=O)OCC(=O)Nc2ccc(F)cc2F)cc(OC)c1OC  2.68%
20. COc1cccc(NC(=O)CN2CCN(c3ccc(F)cc3)CC2)c1  2.77%
21. Cc1ccc2nc(SCC(=O)c3ccc(O)cc3O)[nH]c2c1  3.14%
22. CCOC(=O)C(C)NC(=O)CCc1nnc2ccc(N3CCCCC3)nn12 (centres unmarked)  3.73%
23. Fc1ccc(-n2c(Cc3cccs3)n[nH]c2=S)cc1Cl  4.01%
24. O=C(N/N=C/c1ccc2c(c1)OCO2)c1ccc(Cn2cc([N+](=O)[O-])cn2)o1  4.15%
25. CC(=O)N(C)c1nc(N)n(-c2ccccc2)n1  4.73%
26. COc1ccc(S(=O)(=O)O/N=C2\CCSc3ccc(C)cc32)cc1  5.08%
27. O=C1OCC=C1NNC(=O)c1cccnc1  5.09%
28. Cn1c(=O)c2c(nc(CN3CCc4ccccc4C3)n2CC(=O)c2ccccc2)n(C)c1=O  5.11%
29. O=C(O)CSc1ncnc2scc(-c3ccccc3)c12  5.47%
30. Cn1c(=O)c2c(nc(CN3CCN(CCO)CC3)n2Cc2ccccc2Cl)n(C)c1=O  5.48%
31. COc1cc(C(=O)Nc2nc(C)c(Cc3ccc4c(c3)OCO4)s2)cc(OC)c1OC  5.8%
32. Cc1c(Br)c([N+](=O)[O-])nn1CC(=O)NCCc1c[nH]c2ccccc12  6.3%
33. CN(Cc1ccccc1)C(=O)[C@@H]1CCCN1S(=O)(=O)c1ccc(Cl)cc1  6.37%
34. COc1ccc(-c2c(C#N)c(SCC(=O)c3cc4ccccc4oc3=O)nc(C)c2C(=O)Nc2ccccc2)cc1  6.52%
35. COC(=O)CN(c1ccc2c(c1)OCO2)S(=O)(=O)c1c(C)[nH]c(=O)[nH]c1=O  6.86%
36. O=C(Nc1ccc(Cl)cc1)Nc1ccc(N2CCCC2)c(S(=O)(=O)Nc2ccccc2Cl)c1  6.93%
37. CCc1ccc(NC(=O)c2cc(-c3ccc4c(c3)OCO4)on2)cc1  7.2%
38. O=C(NCC1CCCN1S(=O)(=O)c1cccs1)c1ccccc1F (centres unmarked)  7.3%
39. Cc1sc(NC(=O)C2CCCCC2C(=O)O)c(C(N)=O)c1-c1ccc(C(C)C)cc1 (centres unmarked)  7.34%
40. C=C1N(c2cccc(Cl)c2)C(=O)OC1(C)C  8.03%
41. Cc1ccc2nsnc2c1S(=O)(=O)N(Cc1ccco1)Cc1cc2cccc(C)c2[nH]c1=O  8.25%
42. CCOC(=O)/C(=N/Nc1ccc(Cl)cc1)S(=O)(=O)c1ccc(Cl)cc1  8.34%
43. CS(=O)(=O)c1ccccc1C(=O)Nc1nc2ccccc2[nH]1  8.41%
44. O=C(CSc1nc2ccc(Cl)cc2[nH]1)c1ccc2c(c1)OCO2  8.5%
45. COc1cccc(CN(C)C(=O)c2ccc3c(=O)n4c(nc3c2)CCC4)c1OC  8.59%
46. CCOC(=O)c1c(N2C(=O)Nc3ccccc3N2O)sc2c1CCCC2  8.83%
47. COC1=CCC2([N+](=O)[O-])CN(CC(=O)O)CC1([N+](=O)[O-])C2 (centres unmarked)  8.97%
48. O=C(c1ccc(F)cc1)N1CCCC(N2CCN(Cc3ccc4c(c3)OCO4)CC2)C1 (centres unmarked)  9.31%
49. Cc1cc(C(=O)N/N=C2\CC(=O)CC(C)(C)C2)c2ccccc2n1  9.36%
50. O=C(Nc1ccc(F)cc1)N(Cc1nnc2n1CCCCC2)c1ccccc1  9.42%
51. Cc1cccc(NC(=O)CSCC(=O)NCc2cccc(C(F)(F)F)c2)c1  9.95%
52. C=CCn1c(O)c(N=NC(=O)c2ccc3c(c2)OCO3)c2ccccc21  10%
53. Cc1nc2nc[nH]n2c(=O)c1NC(=O)c1cccc(OCC(C)C)c1  10.2%
54. CC(C)(C)OC(=O)NC1CONC1=O (centres unmarked)  10.5%
55. CNC(=O)C1CCCN1S(=O)(=O)c1ccc(OC)cc1 (centres unmarked)  10.8%
56. CCC(=O)Nc1ccc(OCC2CCCO2)cc1 (centres unmarked)  10.9%
57. CSc1ccc(S(=O)(=O)N2CCC(C(=O)NCCN3CCOCC3)CC2)cc1  11%
58. O=C(CCCN1C(=O)c2cccnc2C1=O)Nc1ccc(F)cc1Cl  11.1%
59. CCC(=O)Nc1nnc(S(=O)(=O)N(CC(C)C)c2ccccc2)s1  11.1%
60. C/C(=N\NC(=O)c1ccccn1)c1ccc(Cl)cc1  11.1%
61. CC(=O)NCC(=O)N1CCCC(C(=O)c2ccc3c4c(cccc24)CC3)C1 (centres unmarked)  11.2%
62. CC(C)(C)/C(O)=C(/C#N)c1nc2ccccc2[nH]1  11.3%
63. COCCn1c(=O)[nH]c2cc(C(=O)NCCN3CCN(c4cccc(Cl)c4)CC3)ccc2c1=O  11.3%
64. CCOc1ncccc1C(=O)OCC(=O)c1cccc(Br)c1  11.4%
65. CCO/N=C(\C)c1c(O)c(CC)c(-c2ccccc2)n(-c2ccccc2)c1=O  11.9%
66. Cc1cc(Cl)ccc1OCC(=O)NN1C(=O)C2C3C=CC(C3)C2C1=O (centres unmarked)  12.2%
67. O=C(c1ccc2[nH]c(=O)c(=O)[nH]c2c1)N1CCc2ccccc2C1  12.2%
68. NC(=O)C1CCCN1 (centres unmarked)  12.5%
69. O=C(O)CCn1cc(C=C2C(=O)NC(=O)NC2=O)c(-c2ccc(Br)cc2)n1  12.8%
70. O=[N+]([O-])c1ccccc1OCCCOc1cccc2cccnc12  12.8%
71. COc1ccc(C2c3sc(=O)[nH]c3SC3C(=O)N(c4ccccc4)C(=O)C32)cc1 (centres unmarked)  12.9%
72. O=C(O)c1ccc(CNC(=O)c2ccccc2NC(=O)c2cccc([N+](=O)[O-])c2)cc1  13%
73. O=C(COC(=O)c1cc[n+]([O-])cc1)Nc1cccc(Cl)c1Cl  13.4%
74. CCOC(=O)CC1=C(C(=O)OCC)C(c2ccc(OC)cc2OC)C(C#N)=C(N)O1 (centres unmarked)  13.6%
75. Cc1ccc(S(=O)(=O)NC(=O)c2ccc(F)cc2)c(C)c1  14.3%
76. Cc1cc(SCC(=O)Nc2ccc(O)cc2)n2ncc(-c3ccccc3)c2n1  14.5%
77. C[C@@]12C(=O)N(Cc3ccc(Cl)cc3)CC(=O)N1[C@H]1c3ccccc3OC[C@@H]1[C@@H]2c1ccccc1  14.7%
78. CCOC(=O)C1CCN(S(=O)(=O)c2cn(C)c(=O)n(C)c2=O)CC1  15%
79. O=[N+]([O-])c1cc(C(F)(F)F)ccc1Cl  15.2%
80. O=C1CCCN1CC(=O)N1CCCC(N2CCN(c3cccc(Cl)c3)CC2)C1 (centres unmarked)  15.7%
81. Cn1ncc2c(Nc3ccc([N+](=O)[O-])cc3)nc(Cl)nc21  15.8%
82. COc1cccc(N=c2oc3ccccc3cc2-c2nc3ccccc3[nH]2)c1  16.7%
83. COc1ccc(N2CCN(CCNC(=O)Nc3cc(Cl)ccc3Cl)CC2)cc1  17.5%
84. Cc1ccc(C(=O)C(C)OC(=O)Cn2[nH]c(=O)c3ccccc3c2=O)cc1 (centres unmarked)  18.2%
85. COc1ccccc1NC(=O)CSc1nnc(CNC(=O)c2cccs2)o1  18.3%
86. COc1ccc(CNC(=O)COC(=O)CCS(=O)(=O)c2ccc(C)cc2)cc1OC  25.1%
